# In PubChem BioAssay AID504332 (National Center for Advancing Translational Sciences (NCATS), 2011):
# About 31,000 (8.9%) of roughly 350,000 compounds were called active. Inconclusive means that the source gave no clear call. Such entries were picked first, then a sample of the others. The call rests on the fitted dose curve; in most records, active means well fitted inhibition curve with a large enough effect; inconclusive means small, poorly fitted or top-dose-only effect; inactive means no such curve, though single readings can be large or run the other way. Where the call is inconclusive, the potency comes from a doubtful curve fit.
# Biological target: Histone-lysine N-methyltransferase EHMT2 (Homo sapiens) (UniProt Q96KQ7)
# Assay: qHTS Assay for Inhibitors of Histone Lysine Methyltransferase G9a; further: nearly all actives have a fitted effect of over 75% in size
# Conditions: G9a H3K9 monomethylation, AlphaScreen, 2 h; activity, negative = inhibition: at 59 µM (top of the series) unless noted
# In short: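 Using a bead-based AlphaScreen, monomethylated H3K9 product from 2 h room-temperature reactions (G9a 20 nM, peptide 500 nM, SAM 20 uM) was detected with 0.5 ug/mL rabbit anti-H3K9me1 antibody.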
# On the % scale 0 is the no-effect control and ±100 the full control effect; potency means the concentration at half of the fitted maximal effect; tags describe the fitted curve by direction and shape.
# UniProt Q96KQ7, sequence (Q96KQ7 whole entry, looked up): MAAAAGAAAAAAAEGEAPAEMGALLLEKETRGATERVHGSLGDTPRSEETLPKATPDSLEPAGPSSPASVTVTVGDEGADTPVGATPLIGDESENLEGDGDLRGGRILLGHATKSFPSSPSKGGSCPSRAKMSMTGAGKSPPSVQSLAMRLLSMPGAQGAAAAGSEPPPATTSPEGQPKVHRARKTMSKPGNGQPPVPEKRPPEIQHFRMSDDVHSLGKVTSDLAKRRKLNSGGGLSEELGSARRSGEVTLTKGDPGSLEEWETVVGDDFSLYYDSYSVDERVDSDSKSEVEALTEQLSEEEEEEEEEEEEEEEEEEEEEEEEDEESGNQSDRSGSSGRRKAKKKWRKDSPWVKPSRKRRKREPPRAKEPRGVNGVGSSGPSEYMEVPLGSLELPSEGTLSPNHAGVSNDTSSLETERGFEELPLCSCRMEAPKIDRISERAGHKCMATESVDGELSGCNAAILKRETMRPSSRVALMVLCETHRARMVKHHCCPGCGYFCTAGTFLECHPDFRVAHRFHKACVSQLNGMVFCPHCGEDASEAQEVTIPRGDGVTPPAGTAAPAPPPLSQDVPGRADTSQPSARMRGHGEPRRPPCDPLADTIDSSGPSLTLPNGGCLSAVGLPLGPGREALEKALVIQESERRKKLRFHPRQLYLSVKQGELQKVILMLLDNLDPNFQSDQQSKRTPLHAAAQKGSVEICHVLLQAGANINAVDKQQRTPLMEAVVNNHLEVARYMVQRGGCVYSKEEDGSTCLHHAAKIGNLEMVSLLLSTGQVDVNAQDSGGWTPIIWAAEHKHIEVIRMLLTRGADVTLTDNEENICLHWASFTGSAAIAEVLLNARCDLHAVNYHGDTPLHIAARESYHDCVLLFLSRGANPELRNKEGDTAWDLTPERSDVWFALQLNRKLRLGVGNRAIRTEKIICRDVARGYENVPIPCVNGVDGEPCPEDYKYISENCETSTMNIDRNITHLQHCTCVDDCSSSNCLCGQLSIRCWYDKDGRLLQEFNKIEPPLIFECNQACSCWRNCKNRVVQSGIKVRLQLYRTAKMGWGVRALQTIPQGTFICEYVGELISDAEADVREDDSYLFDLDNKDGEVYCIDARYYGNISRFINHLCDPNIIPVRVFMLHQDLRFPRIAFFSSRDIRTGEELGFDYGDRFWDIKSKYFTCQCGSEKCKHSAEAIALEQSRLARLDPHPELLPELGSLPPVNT
SMILES,Potency,"activity, negative = inhibition"
COc1cccc(NC(=S)NCc2ccccn2)c1,"inconclusive: 20 µM [inhibitor, partial curve, poor fit]",
Cc1ccc(NC(=O)CCC(=O)Nc2nnc(C3CCCCC3)s2)cc1,"inconclusive: 63.1 µM [inhibitor, single point]",
CC(C)NC(=O)c1ccc2c(=O)n(Cc3ccco3)c(=S)[nH]c2c1,inactive,
CN(C(=O)COC(=O)CNC(=O)c1cccs1)c1c(N)n(Cc2ccccc2)c(=O)[nH]c1=O,inactive,
Cn1nnnc1SCC(=O)Nc1ccc(Br)cc1Cl,active: 2 µM,
COc1ccccc1-c1noc(-c2ccc(N(C)Cc3ccccc3)c([N+](=O)[O-])c2)n1,"inconclusive: 28.2 µM [inhibitor, partial curve, poor fit]",
COc1ccccc1CNC(=O)C[n+]1ccccc1,,inactive: 28.2% [at 12.7 µM]
CCCOP(=O)(c1ccc(N(C)C)cc1)C(O)c1ccc(Br)cc1 (stereo not given),inactive,
CC1CCN(c2c(NCC3CCC(C(=O)Nc4ccccn4)CC3)c(=O)c2=O)CC1 (stereo not given),inactive,
O=c1c2cn[nH]c2nc(SCc2cc(=O)n3cc(Br)ccc3n2)n1-c1ccc(Br)cc1,"inconclusive: 15.8 µM [inhibitor, partial curve, poor fit]",
COc1ccc(Cl)cc1NC(=O)CN(C)C(=O)c1cc2ccccc2cc1OC,"inconclusive: 79.4 µM [inhibitor, partial curve, poor fit]",
CCCCCC(CC(=O)O)C(=O)O (stereo not given),,inactive: -38.3% [at 2.33 µM]
CCOc1ccc2oc(C(=O)OCC(=O)NCc3ccc(OC)cc3)c(C)c2c1,"inconclusive: 10 µM [inhibitor, partial curve, poor fit]",
CCCCC(=O)NC(=S)Nc1ccc(Cl)c(C(=O)O)c1,"inconclusive: 89.1 µM [inhibitor, single point]",
Cc1c(O)c(CN2CCCC2)cc2c1oc(=O)c1ccccc12,active: 22.4 µM,
Cc1cc(/C=C2\SC(=S)NC2=O)cc(C)c1O,active: 39.8 µM,
c1ccc(C2=Nn3c(nnc3-c3ccco3)SC2)cc1,active: 31.6 µM,
COc1ccc(S(=O)(=O)N(c2onc(C)c2Cl)S(=O)(=O)c2ccc(OC)cc2)cc1,,inconclusive: -104% [inhibitor]
C=C(C)CN(CC)CCC(=O)Nc1ccc(OC)cc1OC,"inconclusive: 79.4 µM [inhibitor, single point]",
Cc1cccc(NC(=O)N2CCC(N3CCN(Cc4ccccc4)C(=O)C3=O)CC2)c1C,inactive,
COc1ccc(C2C(C(C)=O)=C(O)C(=O)N2Cc2cccnc2)cc1 (stereo not given),active: 20 µM,
CCOc1ccc(OCC(=O)NCCS(=O)(=O)N2CCN(c3cccc(Cl)c3)CC2)cc1,inactive,
COc1cccc2c(=O)c(C(=O)O)c[nH]c12,active: 22.4 µM,
COc1ccc(CN2C(=O)c3cccnc3C2Nc2ccc(C)cc2)cc1 (stereo not given),inactive,
N#CC1=C(N)SC(N)=C(C#N)C1c1ccc(C(F)(F)F)cc1,active: 2.51 µM,

SMILES,Potency,"activity, negative = inhibition"
O=C(COc1ccc2ccccc2c1Br)N1CCCCC1,"inconclusive: 79.4 µM [inhibitor, single point]",
Cc1sc2nc3n(c(=O)c2c1C)NC(=O)CC3,"inconclusive: 35.5 µM [inhibitor, single point]",
COc1ccccc1NC(=O)CN(Cc1ccccc1)S(C)(=O)=O,"inconclusive: 1.12 µM [inhibitor, full curve]",
CC(C)(C)C1CCc2onc(C(=O)Nc3sc4c(c3C#N)CCCC4)c2C1 (stereo not given),active: 2.82 µM,
CCCCc1c(C)nc2nc(SCc3ccc(Cl)cc3)[nH]n2c1=O,"inconclusive: 79.4 µM [inhibitor, partial curve, poor fit]",
CCCCC(=O)Nc1ccc(C(=O)N2CCC(C(=O)OCC)CC2)cc1,"inconclusive: 89.1 µM [inhibitor, single point]",
CC(C)(C)c1cc(C(=O)NCc2cc(F)cc3c2OCOC3)n(Cc2ccccc2)n1,inactive,
CCN1CC(CN(C)Cc2cn(-c3ccc(C)cc3)nc2-c2ccc(F)cc2)CC1=O (stereo not given),"inconclusive: 1.12 µM [inhibitor, partial curve, poor fit]",
O=C(COC(=O)c1ccc(F)cc1F)Nc1ncccn1,active: 35.5 µM,
O=[N+]([O-])c1ccc(COc2ccccc2/C=N/O)cc1,inactive,
CC(C)(C)NC(=S)NCc1ccco1,active: 79.4 µM,
CC1CCCC(NC(=O)COC(=O)CCC2CCCC2)C1C (stereo not given),"inconclusive: 44.7 µM [inhibitor, partial curve, poor fit]",
CCN(CC)c1ccc(C(=O)OCC(=O)Nc2cc3oc4ccccc4c3cc2OC)cc1,"inconclusive: 39.8 µM [inhibitor, partial curve, poor fit]",
COc1cc(N)c(Cc2nccc3cc(OC)c(OC)cc23)cc1OC,"inconclusive: 70.8 µM [inhibitor, partial curve, poor fit]",
Cc1c(C#N)c(O)[nH]c(=O)c1N=Nc1ccc(Cl)c(C(=O)O)c1,,inactive: 14.3% [at 2.33 µM]
CC(=O)Nc1ccc(S(=O)(=O)NC(C)C(=O)NC(C)c2ccccc2)cc1 (stereo not given),"inconclusive: 44.7 µM [inhibitor, partial curve, poor fit]",
Cc1cc(NC(=O)CCC(=O)N(CC(=O)NCC2CCCO2)c2ccc(C)c(C)c2)no1 (stereo not given),inactive,
O=C(O)CCC1(C(=O)O)OCCc2ccccc21 (stereo not given),inactive,
CCOC(=O)c1c(C)[nH]c(C(=O)Cn2c(=O)c3c(ncn3CC)n(Cc3ccccc3)c2=O)c1C,active: 8.91 µM,
CC1CC(=O)NN=C1c1ccc(N)c([N+](=O)[O-])c1 (stereo not given),"inconclusive: 89.1 µM [inhibitor, single point]",
Cn1nc(C(=O)N2CCN(c3ccccc3F)CC2)c2c1-c1ccccc1S(=O)(=O)C2,inactive,
CC(C)NC(=S)N(C)C1(c2ccccc2Cl)CCCCC1=O (stereo not given),inactive,
Oc1ccc(/C=N/N(Cc2ccccc2)c2ccccc2)cc1,active: 39.8 µM,
COC(=O)C1=C(C)N(CCc2ccccc2)C(=O)/C1=C\c1ccco1,active: 31.6 µM,
O=C(O)/C(=C\c1c(C(=O)O)[nH]c2cc(Cl)cc(Cl)c12)c1ccccc1,"inconclusive: 28.2 µM [inhibitor, single point]",
